Source: PubChem BioAssay AID624417 (National Center for Advancing Translational Sciences (NCATS), 2012)
In all, about 410,000 compounds went through this assay and about 6,400 (1.6%) were called active. The shares of active, inactive and inconclusive entries below differ from those in the screen. The call rests on the fitted dose curve; in most records, active means well fitted inhibition curve with a large enough effect; inconclusive means small, poorly fitted or top-dose-only effect; inactive means no such curve, though single readings can be large or run the other way. No potency is given beside an inconclusive call; the fits are too rough.

target: Glucagon-like peptide 1 receptor (Homo sapiens) (UniProt P43220); experiment: qHTS of GLP-1 Receptor Inverse Agonists (Inhibition Mode); conditions: HEK293 GLP-1R CRE-luciferase, luminescence, 24 h; Potency: GLP-1R form is constitutively active unless noted; activity change, negative = inhibition: at 38.3 µM (top of the series) unless noted; further: nearly all actives have a fitted effect of over 55% in size
How it was run: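 Luminescence readout: a drop in cAMP-driven luciferase signal flags inverse agonism at a constitutively active GLP-1R stably expressed in HEK293. Compound exposure lasted 24 hr at 37 deg C, 5% CO2.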
On the % scale 0 is the no-effect control and ±100 the full control effect; potency means the concentration at half of the fitted maximal effect; tags describe the fitted curve by direction and shape.

Sequence of UniProt P43220 (P43220 whole entry, looked up): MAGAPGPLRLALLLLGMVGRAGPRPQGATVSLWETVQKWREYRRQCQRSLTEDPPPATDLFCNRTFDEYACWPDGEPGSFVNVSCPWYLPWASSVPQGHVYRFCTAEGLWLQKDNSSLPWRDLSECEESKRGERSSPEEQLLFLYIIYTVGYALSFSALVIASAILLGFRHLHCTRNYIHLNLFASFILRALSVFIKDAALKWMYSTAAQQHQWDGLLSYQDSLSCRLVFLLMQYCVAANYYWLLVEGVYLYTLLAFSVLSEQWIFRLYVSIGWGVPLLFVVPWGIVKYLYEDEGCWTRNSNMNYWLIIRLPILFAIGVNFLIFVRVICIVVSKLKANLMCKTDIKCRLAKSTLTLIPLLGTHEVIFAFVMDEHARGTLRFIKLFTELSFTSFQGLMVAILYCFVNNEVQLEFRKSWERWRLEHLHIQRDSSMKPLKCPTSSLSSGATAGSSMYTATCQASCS

| SMILES | Potency | activity change, negative = inhibition |
| --- | --- | --- |
| CCCCN1CC(COCc2ccccc2)Oc2cccc(Oc3ccc(C(C)C)cc3)c2S1(=O)=O (centres undefined) | inconclusive [inhibitor, partial curve, poor fit] |  |
| CCOP(=O)(OCC)c1nc(-c2ccc(F)cc2)oc1NCc1ccccc1 | inconclusive [inhibitor, partial curve, poor fit] |  |
| O=c1c2ccccc2nc(-c2ccccc2Cl)n1-c1cccc(O)c1 | active: 0.891 µM |  |
| CC(C)N1CC=C(c2c[nH]c3ccccc23)CC1 | inconclusive [inhibitor, partial curve, poor fit] |  |
| CCN(CC)c1ccc(CNCCc2ccccc2F)cc1 | inconclusive [inhibitor, partial curve, poor fit] |  |
| O=C(Cc1ccccc1)N1CCN(Cc2cccc(Br)c2)CC1 | inconclusive [inhibitor, partial curve, poor fit] |  |
| O=Cc1c(C(=O)O)n(Cc2ccc(F)cc2Cl)c2ccccc12 | inconclusive [inhibitor, single point] |  |
| Cc1nc2ccccc2c(=O)n1-c1ccncc1 |  | inactive: -0.176% |
| Cc1cccc(OCC(O)CN2CC2)c1 (centres undefined) | inconclusive [inhibitor, single point] |  |
| c1cc2c(cc1[C@H]1OCC3C1CO[C@@H]3c1ccc3c(c1)OCO3)OCO2 (some centres undefined) | inconclusive [inhibitor, single point] |  |
| O=C(NCCc1ccccc1)c1ccc(CSc2nc3cccnc3n2Cc2ccc(F)cc2)cc1 | inconclusive [inhibitor, single point] |  |
| Oc1cccc(/C=N/NP(=S)(c2ccccc2)c2ccccc2)c1 | inconclusive [inhibitor, single point] |  |
| CC(C)(C)c1ccc(C(=O)Nc2ccc3nc(SCC(=O)N4CCCC4)sc3c2)cc1 | inconclusive [inhibitor, single point] |  |
| CCOc1ccc(NCc2cccn2-c2nnc(N3CCC(C(=O)NC(C)c4ccccc4)CC3)s2)cc1 (centres undefined) | inconclusive [inhibitor, partial curve] |  |
| O=C1NC(=S)NC(=O)C1=Cc1ccc(OCc2ccccc2)cc1 |  | inactive: -12.4% |
| COc1cc(/C=C2\C(=O)NC(=O)N(c3ccccc3)C2=O)cc(OC)c1O |  | inactive: 40.1% |
| CCOP(=O)(C#CC(C)(C)C)C(O)(c1ccccc1)C(F)(F)F (centres undefined) | inconclusive [inhibitor, single point] |  |
| Oc1cc(Cl)ccc1Oc1ccc(Cl)cc1Cl | inconclusive [inhibitor, single point] |  |
| O=C1/C(=C\c2cc3c(cc2Br)OCO3)N2CCC1CC2 | inconclusive [inhibitor, partial curve, poor fit] |  |
| c1ccc2c(CN3CCN(C4CCCCC4)CC3)c[nH]c2c1 | inconclusive [inhibitor, partial curve, poor fit] |  |
| COc1ccc2cc(C(=O)C3CCCN(C4CCOCC4)C3)ccc2c1 (centres undefined) | inconclusive [inhibitor, full curve, poor fit] |  |
| CSc1nnc([C@@H](N)Cc2ccccc2)o1 |  | inactive: 0% |

| SMILES | Potency | activity change, negative = inhibition |
| --- | --- | --- |
| O=c1c2ccccc2nc(-c2ccco2)n1-c1ccc(Br)cc1 | inconclusive [inhibitor, full curve, poor fit] |  |
| COC(=O)C1=C(c2ccc(F)cc2OCc2ccccc2)C[C@@H]2CC[C@H]1N2C(=O)NC1Cc2ccccc2C1 | inconclusive [inhibitor, full curve, poor fit] |  |
| COc1ccc(C2CN(C)CC2C(=O)c2ccc(C)cc2)cc1Cl (centres undefined) | active: 10 µM |  |
| COc1cc(C=C2C(=O)NC(=O)NC2=O)ccc1OCc1ccc([N+](=O)[O-])cc1 |  | inactive: 3.36% |
| Cc1ccc(-c2cc(-c3ccc(C)cc3)[n+](-c3ccccc3)c(-c3ccc(C)cc3)c2)cc1 | inconclusive [inhibitor, full curve, poor fit] |  |
| CN1CC(C(=O)c2ccccc2)C(C(=O)c2ccccc2)C1 (centres undefined) | inconclusive [inhibitor, single point] |  |
| CC1CC(C)CC(C)C(O)C(C#N)=CC=CCC(C2CCCC2C(=O)O)OC(=O)CC(O)C(C)C1 (centres undefined) | inconclusive [inhibitor, full curve] |  |
| Oc1cc(Cl)c(Cl)c(Cl)c1 | inconclusive [inhibitor, single point] |  |
| CCOc1cc2c(cc1OCC)-n1cccc1C(c1cccc(F)c1)NC2 (centres undefined) | inconclusive [inhibitor, partial curve, poor fit] |  |
| O=P(Oc1ccccc1)(Oc1ccccc1)C(Nc1ccccc1)c1ccccc1 (centres undefined) | inconclusive [inhibitor, single point] |  |
| CC1CC(C)CN(C(=O)COC(=O)c2cn(C)c3ccccc23)C1 (centres undefined) | inconclusive [inhibitor, single point] |  |
| Nc1cc(N2CCNCC2)ccc1[N+](=O)[O-] |  | inactive: 9.13% |
| Cc1cc(OCCCC(=O)NCc2cccs2)ccc1Cl | inconclusive [inhibitor, single point] |  |
| O=C1NCN(c2ccccc2)C12CCN(C(c1cccs1)c1nnnn1C1CCCCC1)CC2 (centres undefined) |  | inactive: -19.9% |
| CCn1cc2nc(SCc3c(F)cccc3Cl)n(CCc3ccccc3)c(=O)c2n1 | inconclusive [inhibitor, full curve, poor fit] |  |
| COc1ccccc1N1CCN(CCc2c[nH]c3cc4c(cc23)OCO4)CC1 | inconclusive [inhibitor, partial curve, poor fit] |  |
| CN1Cc2cnnn2-c2ccccc2C1C#N (centres undefined) | inconclusive [inhibitor, single point] |  |
| CCOC(=O)c1c(-c2ccccc2)oc2ccc(OC(=O)N(C)C)cc12 | inconclusive [inhibitor, partial curve, poor fit] |  |
| COc1ccc(C(c2nnnn2Cc2ccccc2)N2CCC(n3c(=O)[nH]c4ccccc43)CC2)cc1 (centres undefined) | inconclusive [inhibitor, single point] |  |
| COc1ccccc1-n1c(-c2ccccc2F)nc2ccccc2c1=O | inconclusive [inhibitor, single point] |  |
| CCOC(=O)[C@]12Cc3cc(OC)ccc3[C@H]1N(C1CCCCC1)C(=O)c1ccccc12 | active: 2.51 µM [setting not given] |  |
| Cc1cc(NCCN)nc2ccccc12 |  | inactive: -6.63% |

| SMILES | Potency | activity change, negative = inhibition |
| --- | --- | --- |
| O=P(O)(Oc1ccccc1)OC(c1ccccc1)C(F)(F)C(F)(F)F (centres undefined) | inconclusive [inhibitor, single point] |  |
| CC(=O)OC1(Cc2ccccc2)CN2CCC1c1ccccc12 (centres undefined) | inconclusive [inhibitor, partial curve, poor fit] |  |
| O=C(COc1ccccc1)N1CCN(C/C=C/c2ccccc2)CC1 |  | inactive: -4.08% |
| CCOc1ccc(CN(CCc2ccc3c(c2)OCO3)Cc2ccc(C)cc2)cc1 | inconclusive [inhibitor, single point] |  |
| O=Cc1cn(Cc2ccccc2[N+](=O)[O-])c2ccccc12 | inconclusive [inhibitor, partial curve, poor fit] |  |
| COc1ccc(N2CCN(CCCNC(=O)c3cnn(-c4ccc(F)cc4)c3-n3cccc3)CC2)cc1 | inconclusive [inhibitor, full curve, poor fit] |  |
| CC(N)C(=O)NC1C2C(=C(O)CC(O)C2O)C(=O)OC1(C)C(Cl)Cl (centres undefined) | inconclusive [inhibitor, full curve, poor fit] |  |
| CN(C(=O)Oc1cccc2ccccc12)C1C=CCC1 (centres undefined) | inconclusive [inhibitor, single point] |  |
| CN(C)CCN=Cc1c(O)n(CCC2=CCCCC2)c(=O)[nH]c1=O | inconclusive [inhibitor, single point] |  |
| COc1cccc(CCNCc2ccc(SC)cc2)c1 | inconclusive [inhibitor, partial curve, poor fit] |  |
| Cc1c(N=Nc2c(O)[nH]c(=S)[nH]c2=O)c(=O)n(-c2ccccc2)n1C |  | inactive: 11.1% |
| Cc1cc(C(=O)CS(=O)(=O)c2ccccc2)cc(C)c1OC(=O)N(C)C | inconclusive [inhibitor, single point] |  |
| Cc1cccc(-n2nc(C)c3c2NC(=O)CSC3c2ccccc2Cl)c1 (centres undefined) | inconclusive [inhibitor, single point] |  |
| COc1ccc(C(Nc2cccc([N+](=O)[O-])c2)P(=O)(OC(C)C)OC(C)C)cc1 (centres undefined) | inconclusive [inhibitor, single point] |  |
| FC(F)(F)c1cccc(C2NCc3ccccc3-n3cccc32)c1 (centres undefined) | inconclusive [inhibitor, single point] |  |
| CCOC(=O)[C@]12Cc3cc(OC)ccc3[C@H]1N(Cc1ccccc1)C(=O)c1cc(F)c(F)cc12 | inconclusive [inhibitor, partial curve, poor fit] |  |
| c1cc2c(cc1C1OCC3C(c4ccc5c(c4)OCO5)OCC13)OCO2 (centres undefined) | inconclusive [inhibitor, single point] |  |
| COc1ccccc1N1CCN(Cc2ccc(Cl)cc2Cl)CC1 | inconclusive [inhibitor, partial curve] |  |
| CCN1CC=C(c2c[nH]c3ccccc23)CC1 | inconclusive [inhibitor, partial curve, poor fit] |  |
| CC(C)C(=O)c1cn(Cc2ccc(C#N)cc2)c2ccccc12 | inconclusive [inhibitor, partial curve, poor fit] |  |
